Measured values from PMC7819943, “Rice protein-binding microarrays: a tool to detect cis-acting elements near promoter regions in rice”.
This is one part of the list.

Each sequence was assayed against T1, OsWOX13 (Oryza sativa, UniProt Q5QMM3 1-267) (assay: protein-binding microarray (RPBM); PBS, 2% BSA, 51.3 ng/ul salmon testes DNA, 50 uM zinc acetate, 200 nM TF, 25 C, 1 h; high values mean tight binding). Conditions: protein: recombinant; tags: N-terminal polyhistidine and DsRed monomer fusion (pET32a); label: CyDye5-dUTP incorporated in the synthesized complementary strand; 3' TTTTT single-stranded linker to array surface; dsDNA, one strand shown.
T1 sequence: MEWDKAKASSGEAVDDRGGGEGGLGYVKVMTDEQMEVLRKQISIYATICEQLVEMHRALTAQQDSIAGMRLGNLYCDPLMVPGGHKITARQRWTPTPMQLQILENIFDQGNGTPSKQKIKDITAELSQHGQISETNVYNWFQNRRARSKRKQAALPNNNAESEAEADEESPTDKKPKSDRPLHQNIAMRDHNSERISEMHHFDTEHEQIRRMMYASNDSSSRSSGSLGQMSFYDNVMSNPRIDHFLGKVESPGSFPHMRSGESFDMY
Method in brief: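 Binding signal here means per-feature fluorescence intensity in arbitrary units. The values were read on an Axon 4000B scanner after a custom Agilent array, double-stranded by primer extension with Cy5-dUTP, was incubated with 200 nM protein at 25 °C for 1 h in PBS with 2% BSA, salmon testes DNA and 50 µM zinc acetate, then washed. The proteins were transcription factors with an N-terminal polyhistidine tag and DsRed, expressed in E. coli BL21-CodonPlus and purified on Ni–NTA.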

Row | Sequence | binding signal
1 | GGCTAATTCGATCTGACATGGCACCGATGTGGGCGCTTACCGGAGTCACCTAGTGCAG | 4170 fluorescence intensity (a.u.)
2 | CAACAAATTGGCCCACTATGAAACGGGAATGAGGCCTACGCGGAGTCACCTAGTGCAG | 15400 fluorescence intensity (a.u.)
3 | TATAATTGAAGGCACCGGATGGATGCAATCAACAAAACAACGGAGTCACCTAGTGCAG | 16900 fluorescence intensity (a.u.)
4 | TTGCAATGAATGGACAAGATTGATGTACTACAGGACCCAACGGAGTCACCTAGTGCAG | 19400 fluorescence intensity (a.u.)
5 | AGGCATTGATGGACGAGTCACGGCGTGCCGCACCGGCGTGCGGAGTCACCTAGTGCAG | 6840 fluorescence intensity (a.u.)
6 | TTTTAATTATTTTCTATGTGAGACTGACATGTGGGTCCCGCGGAGTCACCTAGTGCAG | 24700 fluorescence intensity (a.u.)
7 | TGCATGTGATTGAAACATCTTTTGATAAATCAATGAAACACGGAGTCACCTAGTGCAG | 31000 fluorescence intensity (a.u.)
8 | ACTAATTAAACCGGACAGTTGTTGTTGATGATGATATACGCGGAGTCACCTAGTGCAG | 30200 fluorescence intensity (a.u.)
9 | TATTTAATTGCAACGAATACAATAGTTTAATCGGATTATACGGAGTCACCTAGTGCAG | 9360 fluorescence intensity (a.u.)
10 | AGACAATATAATTAATAAATATACCATAGAGGAGTTCATGCGGAGTCACCTAGTGCAG | 3410 fluorescence intensity (a.u.)
11 | CGTAATAATTAAAAGCTTAATAAACGTTTTCACATGTGCGCGGAGTCACCTAGTGCAG | 24100 fluorescence intensity (a.u.)
12 | ATATAACAGTTTATTCACAAATTATTTTCCGTTTGCAAATCGGAGTCACCTAGTGCAG | 6830 fluorescence intensity (a.u.)
13 | CCACCGTCGGCCGTTCGATTGATTGGGACGTCGTCCGCGACGGAGTCACCTAGTGCAG | 9280 fluorescence intensity (a.u.)
14 | CAGATAACAGATTTCATGGGGCTCAGAGATGCCTCCTCTACGGAGTCACCTAGTGCAG | 8540 fluorescence intensity (a.u.)
15 | CTCGATTGATTTCACTCCGCTTCTTCTTCTTCTTCCTCCTCGGAGTCACCTAGTGCAG | 47000 fluorescence intensity (a.u.)
16 | TACCCATTAAGTGTTCAATTATATAATGCATGGCTATTAGCGGAGTCACCTAGTGCAG | 10900 fluorescence intensity (a.u.)
17 | AATTAATAATGATGACCTTCGTCTGTACCGGTTCTTCAAACGGAGTCACCTAGTGCAG | 3270 fluorescence intensity (a.u.)
18 | TCAAAATTGAAAGTTTGGTTGAAATTGAAACGATTCGACACGGAGTCACCTAGTGCAG | 13900 fluorescence intensity (a.u.)
19 | ATTCAATCAGAAACTTGTATACGTCCATATGGTATAACTACGGAGTCACCTAGTGCAG | 13000 fluorescence intensity (a.u.)
20 | AATCAAATTAATCCATTTTCGAAAAGAAATTAGCTAATACCGGAGTCACCTAGTGCAG | 9960 fluorescence intensity (a.u.)
21 | CGGGATTGGATCGGGCACGGATATTATCGGATACGAATAGCGGAGTCACCTAGTGCAG | 7660 fluorescence intensity (a.u.)

Row | Sequence | binding signal
22 | CTCTGATTTGGATCGTGTCAAACCGACCGACGCACCAAAACGGAGTCACCTAGTGCAG | 12000 fluorescence intensity (a.u.)
23 | CTGACAACTAATATGTTGAATTAATTATTGTCCTATGGCTCGGAGTCACCTAGTGCAG | 9360 fluorescence intensity (a.u.)
24 | GGGCTCTGATTATGGGTGCTCCTCCCCAACCAATATAGCACGGAGTCACCTAGTGCAG | 4310 fluorescence intensity (a.u.)
25 | TTGACTGAAATATGGACGACGTACCAAAGCATCAATGGCACGGAGTCACCTAGTGCAG | 7630 fluorescence intensity (a.u.)
26 | GATGTGAGATTGACGGCCCACCAGCGGCCGCATCACCAACCGGAGTCACCTAGTGCAG | 9410 fluorescence intensity (a.u.)
27 | TGACAGATGATTAGGTTGACCTTAGTACAACCAAACCCTCCGGAGTCACCTAGTGCAG | 18500 fluorescence intensity (a.u.)
28 | GTTTAATTAAAATCCACCAACAATGACAATTTAATAGGTGCGGAGTCACCTAGTGCAG | 32300 fluorescence intensity (a.u.)
29 | AGTTAATTTTAAGACTTAATTATGAAGTTGATTTTGTGGACGGAGTCACCTAGTGCAG | 33900 fluorescence intensity (a.u.)
30 | GTAATAACATGTAATTAATTAAATTTTAACTATTACAAATCGGAGTCACCTAGTGCAG | 24100 fluorescence intensity (a.u.)
31 | ACAGTAGATTGACTATAGTTGAGCACAACGGTAAGGCCGTCGGAGTCACCTAGTGCAG | 8160 fluorescence intensity (a.u.)
32 | TGCTAGTTAAATTGGGATAAAATAATGGGCCCATTTATTTCGGAGTCACCTAGTGCAG | 4520 fluorescence intensity (a.u.)
33 | TCCGGATTAACTGATTAAGTGCTTAGTTATTGGTGGTGCTCGGAGTCACCTAGTGCAG | 36100 fluorescence intensity (a.u.)
34 | CAACCAATCAAATAAGCAACCTGCATTCTCTTCATTCACTCGGAGTCACCTAGTGCAG | 11700 fluorescence intensity (a.u.)
35 | ATGAATTAGATTTCAGTCACATCTGAGGGTCAAGAGAAGCCGGAGTCACCTAGTGCAG | 3950 fluorescence intensity (a.u.)
36 | GACGATTGATGAGTATAAGTCAGTTAGGGTTTACGGACGGCGGAGTCACCTAGTGCAG | 49500 fluorescence intensity (a.u.)
37 | ATTAACATAAAACTCGTCAATGATTAGCTTGTTTGCAGGGCGGAGTCACCTAGTGCAG | 21800 fluorescence intensity (a.u.)
38 | CCTAATTAATCCATAATTATCAAAAGTTTACTGTAGCATCCGGAGTCACCTAGTGCAG | 62800 fluorescence intensity (a.u.)
39 | TCCGACATGATTTTAATCTTAGCCACATGCTCCATAAAGACGGAGTCACCTAGTGCAG | 6830 fluorescence intensity (a.u.)
40 | CATTTAATTATTCATCTTATTCAAACATGTACTCTAAATACGGAGTCACCTAGTGCAG | 5260 fluorescence intensity (a.u.)
41 | TTAATTCTGAGATTTCTCTGATTGCTTAGTTGTTATATTCCGGAGTCACCTAGTGCAG | 8090 fluorescence intensity (a.u.)
42 | TCACGTGACTGGATCCCTCTTCTCTCTCGCGCGAGCGTCGCGGAGTCACCTAGTGCAG | 6200 fluorescence intensity (a.u.)
